Laboratory results published in PubChem BioAssay AID2147 (National Center for Advancing Translational Sciences (NCATS), 2009).
In all, about 230,000 compounds went through this assay and about 3,600 (1.6%) were called active. The shares of active, inactive and inconclusive entries below differ from those in the screen. The call rests on the fitted dose curve; in most records, active means well fitted inhibition curve with a large enough effect (not every such curve was filed as active); inconclusive means small, poorly fitted or top-dose-only effect, or another doubt; inactive means no such curve, though single readings can be large or run the other way. Potencies of inconclusive entries are doubtful fits and often do not repeat.

biological target: Lysine-specific demethylase 4E (Homo sapiens) (UniProt B2RXH2); experiment: qHTS Assay for Inhibitors of Human Jumonji Domain Containing 2E (JMJD2E); details: JMJD2E catalytic domain, FDH-coupled NADH fluorescence (FDH is formaldehyde dehydrogenase); series mostly up to 57.1 µM
UniProt B2RXH2, sequence (B2RXH2 whole entry, looked up, the tested form may be a part): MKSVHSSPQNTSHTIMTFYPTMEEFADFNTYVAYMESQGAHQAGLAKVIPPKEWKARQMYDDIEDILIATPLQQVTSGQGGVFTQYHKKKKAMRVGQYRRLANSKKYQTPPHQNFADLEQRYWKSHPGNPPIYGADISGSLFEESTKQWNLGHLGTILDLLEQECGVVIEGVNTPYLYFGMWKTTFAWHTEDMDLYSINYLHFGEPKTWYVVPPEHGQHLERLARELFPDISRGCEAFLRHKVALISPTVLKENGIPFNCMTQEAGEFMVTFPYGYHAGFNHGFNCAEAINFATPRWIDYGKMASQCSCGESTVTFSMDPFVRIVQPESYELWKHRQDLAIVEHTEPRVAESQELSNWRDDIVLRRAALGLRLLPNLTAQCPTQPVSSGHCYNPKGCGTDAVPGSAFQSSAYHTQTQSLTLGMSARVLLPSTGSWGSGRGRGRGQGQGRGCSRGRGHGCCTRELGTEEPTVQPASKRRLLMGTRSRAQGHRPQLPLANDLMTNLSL
Further: nearly all actives have a fitted effect of over 50% in size.
Potency means the concentration at half of the fitted maximal effect; tags describe the fitted curve by direction and shape.

Row | SMILES | Potency
1 | OCCN(CCO)c1ccc(C(c2ccc(Cl)cc2)c2ccc(N(CCO)CCO)cc2Cl)c(Cl)c1 | inactive
2 | COc1ccc2cc(C(C)CO)ccc2c1 (centres undefined) | inactive
3 | O=C(N/N=C/c1cc(Br)cc(Br)c1O)c1ccncc1 | inconclusive: 35.5 µM [inhibitor, single point]
4 | Cc1ccc(-c2cc(C(F)F)nc(NCc3cccs3)n2)cc1 | inconclusive: 3.55 µM [inhibitor, single point]
5 | COc1ccc(C2=NN3C(C2)c2ccccc2OC3c2cccs2)cc1 (centres undefined) | inconclusive: 35.5 µM [inhibitor, single point]
6 | CCCNC(=O)/C=C/C(=O)O | inactive
7 | Cc1cc2nc3c(c(=O)n2[nH]1)CCCC3 | inconclusive: 28.2 µM [inhibitor, partial curve]
8 | O=c1c2sccc2nc(SCc2cc(=O)n3ccccc3n2)n1-c1ccc(Br)cc1 | inconclusive: 28.2 µM [inhibitor, partial curve]
9 | N#C/C(=C\C=C\c1ccccc1[N+](=O)[O-])C(=O)NC1CCCCC1 | inactive
10 | O=C1CCCN1CCCNc1ncnc2c1cnn2-c1ccc(Cl)cc1 | inconclusive: 35.5 µM [inhibitor, single point]
11 | Cc1sccc1/C=N/NC(=O)c1cccc2ccccc12 | inactive
12 | C/C(=N\NS(=O)(=O)c1ccc(Cl)cc1)c1ccc(O)cc1 | inconclusive: 39.8 µM [inhibitor, single point]
13 | O=C(O)CCc1nn2c3ccccc3nc2n(CCN2CCCCC2)c1=O | inconclusive: 28.2 µM [inhibitor, partial curve]
14 | Cc1ccc(-c2ccc(C(=O)O)o2)cc1Cl | inconclusive: 28.2 µM [inhibitor, single point]
15 | CC(=O)Nc1ccc2[nH]c3ccccc3c2c1 | inconclusive: 39.8 µM [inhibitor, single point]
16 | Fc1ccc(-c2cc(C(F)(F)F)nc(-n3cncn3)n2)cc1 | inconclusive: 25.1 µM [inhibitor, single point]
17 | O=C(/C=C/c1ccccc1)Nc1cccc(C(=O)O)c1 | inactive
18 | C=CCOc1ccc(CNc2nccs2)cc1OC | inconclusive: 28.2 µM [inhibitor, partial curve]
19 | CCCCOc1ccc(NC(=O)CN2CCN(C(=O)OCC)CC2)cc1 | inconclusive: 28.2 µM [inhibitor, single point]
20 | Cc1cc2cc(CCNC(=O)CC(C)(C)C)c(=O)[nH]c2cc1C | inconclusive: 39.8 µM [inhibitor, single point]
21 | O=S(=O)(NCC1NCCc2ccccc21)c1ccccc1 (centres undefined) | inconclusive: 8.91 µM [inhibitor, single point]
22 | Cc1ccccc1N1C(=O)CC2(CCCC2)CC1=O | inactive
23 | COc1ccc2c(c1)-c1nc(/N=C/c3ccc(O)c(OC)c3)sc1CC2 | inconclusive: 39.8 µM [inhibitor, single point]
24 | CCOC(=O)c1oc2cc(O)ccc2c(=O)c1-c1ccccc1OC | inactive
25 | Cc1cc(C)n2cc(CSCC(=O)O)nc2n1 | inconclusive: 28.2 µM [inhibitor, partial curve]

Row | SMILES | Potency
26 | O=S(=O)(Nc1nc2ccccc2nc1NCc1ccco1)c1ccc(F)cc1 | inconclusive: 25.1 µM [inhibitor, partial curve]
27 | CCOC(=O)N1CCN(C(=O)c2cn(CC)c3cc(N4CCN(C)CC4)c(F)cc3c2=O)CC1 | inconclusive: 28.2 µM [inhibitor, partial curve]
28 | O=C(/C=C/Sc1ncn[nH]1)c1ccc(Cl)cc1 | active: 7.08 µM
29 | CCCC(c1nnnn1CCOC)N1CCN(Cc2ccccc2)CC1 (centres undefined) | inconclusive: 39.8 µM [inhibitor, single point]
30 | O=C(Nc1ccc2oc(-c3ccccc3)nc2c1)C1CCCO1 (centres undefined) | inconclusive: 28.2 µM [inhibitor, partial curve]
31 | COc1cccc([C@@H]2Oc3ccc(OC)cc3C(=O)[C@H]2OC(=O)NC2CCCC2)c1 | inconclusive: 39.8 µM [inhibitor, single point]
32 | CC(=O)O[C@H]1CC2(C)[C@@H](C[C@@H](O)[C@H]3[C@@]4(C)CC[C@@H](O)[C@@H](C)[C@@H]4CC[C@@]32C)C1=C(CCC=C(C)C)C(=O)O (some centres undefined) | inactive
33 | CC1CCC(C(=O)NNC(=O)c2cc(-c3ccco3)[nH]n2)CC1 (centres undefined) | inactive
34 | CC(OC(=O)c1cc2sccc2n1C)C(=O)NCc1cccs1 (centres undefined) | inactive
35 | CCOC(=O)Cc1cc(-c2ccc(OC)cc2)nc2ccc3ccccc3c12 | inconclusive: 31.6 µM [inhibitor, partial curve]
36 | Cc1sc2c3ccsc3ccc2[n+]1C | active: 25.1 µM
37 | COc1ccc(CCn2c(=O)[nH]c3cc(C(=O)NCCc4ccccc4)ccc3c2=O)cc1OC | inactive
38 | O=C1CCN(C(=O)Nc2ccccc2Cl)N1 | inactive
39 | CN(C)c1ccc(/C=N/NC(=O)CCCCCNC(=O)c2ccccc2)cc1 | inconclusive: 31.6 µM [inhibitor, partial curve]
40 | CCn1cc(CN2CCc3c([nH]c4ccccc34)C2c2cccc(O)c2)c(C)n1 (centres undefined) | inconclusive: 25.1 µM [inhibitor, single point]
41 | O=C(Nc1ccc(Cl)cc1C(F)(F)F)C(Sc1cccc[n+]1[O-])c1ccccc1 (centres undefined) | inactive
42 | CC1(C)CC(=O)C(N=Nc2cccc([N+](=O)[O-])c2)=C(O)C1 | inactive
43 | Cc1cc(C)c2c(=O)n(CC(=O)N3CCC(Cc4ccccc4)CC3)sc2n1 | inconclusive: 31.6 µM [inhibitor, single point]
44 | Nc1c(S(=O)(=O)c2cccs2)c2nc3ccccc3nc2n1/N=C/c1cccc(O)c1 | inconclusive: 31.6 µM [inhibitor, partial curve]
45 | Cc1cc(-c2ccco2)n(CC(=O)NCc2ccco2)n1 | inactive
46 | COc1ccc(-c2cc(C(F)(F)F)n3nc(N)nc3n2)cc1 | inconclusive: 28.2 µM [inhibitor, partial curve]
47 | Cc1cc(C)nc(NS(=O)(=O)c2ccc(NC(=O)CSc3nc4ccccc4[nH]3)cc2)n1 | inactive
48 | COc1ccc(C2=NN(c3nc(C(=O)O)cs3)C(O)(C(F)(F)F)C2)c(OC)c1 (centres undefined) | inconclusive: 28.2 µM [inhibitor, partial curve]
49 | C=CCNc1nc(=S)[nH]c2cc(OC)c(OC)cc12 | inactive
50 | O=C(Cc1cccs1)N1CCN(c2ccccn2)CC1 | inconclusive: 28.2 µM [inhibitor, partial curve]

Row | SMILES | Potency
51 | CCc1ccc(C2C(C#N)=C(N)N(N(C)C)C3=C2C(=O)CCC3)s1 (centres undefined) | inconclusive: 39.8 µM [inhibitor, single point]
52 | CCOC(=O)C1C(C)=C(Nc2ccc(OC)cc2)C(=O)N1c1ccc(OC)cc1 (centres undefined) | inconclusive: 39.8 µM [inhibitor, single point]
53 | CC1CCC/C(=C\Nc2ccccc2C(=O)O)C1=O (centres undefined) | inconclusive: 31.6 µM [inhibitor, partial curve]
54 | CCOCCCNS(=O)(=O)c1cc(Br)cc2c1N(C(=O)C1CC1)CC2 | inactive
55 | Cc1ccccc1NC(=O)Cn1c(C)nc2ccc(NC(=O)C3CC3)cc2c1=O | inconclusive: 39.8 µM [inhibitor, single point]
56 | CNC(=O)c1ccsc1NC(=O)c1sc2ccccc2c1Cl | inconclusive: 35.5 µM [inhibitor, single point]
57 | CCOc1ccc(OCCCN(C)C)cc1 | inconclusive: 39.8 µM [inhibitor, single point]
58 | Cc1ccc(-c2n[nH]c(=O)c3ccccc23)cc1S(=O)(=O)NCCN1CCOCC1 | inactive
59 | COc1ccc(S(=O)(=O)NCCC(=O)NCc2ccccc2)cc1 | inactive
60 | CSC1=C(C#N)C(c2ccc(C)cc2)C2=C(CCCC2=O)N1 (centres undefined) | inconclusive: 39.8 µM [inhibitor, single point]
61 | CCCCCOCC1CC(C/C(C)=N/NC(N)=O)(C(=O)OCC)C(=O)O1 (centres undefined) | inactive
62 | O=C(O)CNc1nc(-c2ccccc2)c2cc([N+](=O)[O-])ccc2n1 | inactive
63 | CCOC(=O)c1c(Nc2nc(C)c(C(=O)NC)s2)sc(C)c1C | inconclusive: 35.5 µM [inhibitor, partial curve]
64 | Cc1cccc(-c2nc(Nc3ccc(N4CCOCC4)cc3)c3ccccc3n2)c1 | inactive
65 | CC(Sc1nnc(Nc2ccccc2)s1)C(=O)NC1CCCc2ccccc21 (centres undefined) | inactive
66 | O=C(Nc1ccc2c(c1)CCC2)c1cnc(Cl)c(Cl)c1 | inconclusive: 39.8 µM [inhibitor, single point]
67 | Oc1cnc2ccccc2c1CN1CCOCC1 | inconclusive: 31.6 µM [inhibitor, partial curve]
68 | COC(=O)C(C)Sc1ccc2nnc(-c3cccc(F)c3)n2n1 (centres undefined) | inconclusive: 31.6 µM [inhibitor, single point]
69 | O=C(Nc1ccc2c(c1)oc1ccccc12)c1cccnc1 | inconclusive: 35.5 µM [inhibitor, single point]
70 | CC(=O)Oc1ccc(C(c2ccc(OC(C)=O)cc2)c2ccccn2)cc1 | inconclusive: 39.8 µM [inhibitor, single point]
71 | CNC(=S)N/N=C/c1ccc(-c2ccc(C(=O)O)cc2)o1 | inconclusive: 28.2 µM [inhibitor, partial curve]
72 | COc1ccccc1NC(CC(=O)c1ccccc1)C(=O)OCC(=O)c1ccc(F)cc1 (centres undefined) | inactive
73 | CN(C)CCCN(C(=O)c1ccco1)c1nc2ccc(Br)cc2s1 | inconclusive: 39.8 µM [inhibitor, single point]
74 | O=C(NNC(=O)C1[C@H]2CCCC[C@@H]12)Nc1cccc2ccccc12 (some centres undefined) | inconclusive: 39.8 µM [inhibitor, single point]
